Values come from read counts of a selection and are noisy.
Test system: NB7
Experiment: fold depletion of shRNA, plasmid library share / infected cells without Dox share (9 days) (ratio); higher = more depleted after infection (more toxic, leaky expression from a Tet-inducible vector; NB7 is a neuroblastoma line without caspase-8)
[1] = shRNA pool: CD95 ORF + CD95 3'UTR + Venus libraries
[2] = shRNA pool: CD95L ORF + CD95L 3'UTR + Venus libraries
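Also: shRNA barcodes quantified by deep sequencing of PCR amplicons from cellular DNA, counts expressed as percent of each subpool, ratio averaged over two biological duplicates.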

Row | Sequence | fold depletion of shRNA [1] | fold depletion of shRNA [2]
1 | TCAAGAATGACAATGTCCAAG | 1.11 | –
2 | TCAAGATCCGCCACAACATCG | 2.04 | 3.18
3 | TCAAGATTTTGAATGCTTCCT | – | 10.2
4 | TCAAGGACATTACTAGTGACT | 0.836 | –
5 | TCAAGGACGACGGCAACTACA | 1.21 | 1.11
6 | TCAAGGAGGACGGCAACATCC | 1.08 | 1.3
7 | TCAAGGCCAACTTCAAGATCC | – | 1.16
8 | TCAAGGGGGACTGTCTTTCAG | – | 1.56
9 | TCAAGGTCCATGCCTCTGGAA | – | 2.15
10 | TCAAGGTGGGCCTTGCTACCT | – | 7.2
11 | TCAAGTAAGAAGACATGAACC | – | 3.97
12 | TCAAGTCCGCCATGCCCGAAG | 0.902 | 1.44
13 | TCAATAATGTCCCATGTAAAA | 0.923 | –
14 | TCAATAGAAGAAGCTATGACC | 0.59 | –
15 | TCAATCTTACCAGTGCTGATC | – | 1.14
16 | TCAATGAAACTGGGCTGTACT | – | 1.26
17 | TCAATGAAGCCAAAATAGATG | 0.342 | –
18 | TCAATTACCCATATCCCCAGA | – | 2.11
19 | TCAATTGTGAATTCACATAGA | 0.701 | –
20 | TCAATTTTGAGGAATCTCAGA | – | 0.931
21 | TCACATAGAAAACATTAAATT | 0.827 | –
22 | TCACATGGTCCTGCTGGAGTT | 3.13 | 4.82
23 | TCACCAAAAAATACTTAATAG | 1.2 | –
24 | TCACCACTATTGCTGGAGTCA | 1.25 | –

Row | Sequence | fold depletion of shRNA [1] | fold depletion of shRNA [2]
25 | TCACCAGCAACACCAAGTGCA | 0.742 | –
26 | TCACCGCCGACAAGCAGAAGA | 0.816 | 0.994
27 | TCACCGGGGTGGTGCCCATCC | 1.55 | 2.66
28 | TCACCTAATGTTTATGAGCCA | – | 15.2
29 | TCACCTCTCAAGGTGGGCCTT | – | 0.799
30 | TCACTCTCGGCATGGACGAGC | 1.19 | 1.47
31 | TCACTTCTAAATGCATATCCT | – | 1.72
32 | TCAGAAAATTCAAACTTCAGA | 0.812 | –
33 | TCAGAAATGAAATCCAAAGCT | 1.17 | –
34 | TCAGAACTTGGAAGGCCTGCA | 1.32 | –
35 | TCAGACGTTTTTCGGCTTATA | – | 2.98
36 | TCAGACTATCATCCTCAAGGA | 1.97 | –
37 | TCAGAGAAAGTAGCTTTGTGA | 1.47 | –
38 | TCAGCGTGTCCGGCGAGGGCG | 0.366 | 0.535
39 | TCAGCTACTAATGATGTTTTC | – | 1.26
40 | TCAGCTCTTCCACCTACAGAA | – | 1.51
41 | TCAGGCATCAAAAGCATTTTG | 0.833 | –
42 | TCAGTGAGGGTCTTCTTACAT | – | 27.8
43 | TCAGTGTATGTTAGTACAAAT | 0.874 | –
44 | TCAGTTCTGAGTATATGCAAT | 0.926 | –
45 | TCATACCCCCAAGTTTCTAAG | 1.98 | –
46 | TCATATTATACAATATTTCAA | 1.12 | –
47 | TCATATTTATGTAAAGTATAT | 0.708 | –
48 | TCATCAAGAGTAAATGCAGTG | 0.906 | –

Row | Sequence | fold depletion of shRNA [1] | fold depletion of shRNA [2]
49 | TCATCCTCAAGGACATTACTA | 2.02 | –
50 | TCATCTTTGGAGAAGCAAATA | – | 2.53
51 | TCATGAACCCATGTTTGCAAT | 6.17 | –
52 | TCATGAATCTCCAACTTTAAA | 0.976 | –
53 | TCATGACACTAAGTCAAGTTA | 0.619 | –
54 | TCATGATGGCCAATTCTGCCA | 1 | –
55 | TCATGGAAAGAAAGAAGCGTA | 0.81 | –
56 | TCATGGTTCTGGTTGCCTTGG | – | 1.87
57 | TCATTCCTAACACAGCATGTG | – | 1.85
58 | TCATTGATTGTCAGCTACTAA | – | 0.558
59 | TCATTTATATGTCAACGTATC | – | 0.619
60 | TCATTTATTAGCGCTGAAGAG | 0.842 | –
61 | TCATTTCATTCCTAACACAGC | – | 2.82
62 | TCCAAAAGTGTTAATGCCCAA | 2.21 | –
63 | TCCAAAGTATACTTCCGGGGT | – | 1.68
64 | TCCAAATGCAGAAGATGTAGA | 1.08 | –
65 | TCCAACTCAAGGTCCATGCCT | – | 3.58
66 | TCCAACTTTAAATCCTGAAAC | 0.659 | –
67 | TCCAAGACACAGCAGAACAGA | 1.1 | –
68 | TCCAAGGATGTTTAAAATCTA | 0.522 | –
69 | TCCAAGGGATTGGAATTGAGG | 2.71 | –
70 | TCCACCCCCTGAAAAAAAGGA | – | 2
71 | TCCACCTACAGAAGGAGCTGG | – | 3.05
72 | TCCACTAATTGTTTGGGTGAA | 0.89 | –

Row | Sequence | fold depletion of shRNA [1] | fold depletion of shRNA [2]
73 | TCCACTACCGCTGCCACCCCT | – | 14.6
74 | TCCAGATCTAACTTGGGGTGG | 0.628 | –
75 | TCCAGGAGCGCACCATCTTCT | 1.1 | 6.58
76 | TCCAGGCACAGTTCTTCCCTG | – | 2.87
77 | TCCAGGTGAAAGGAAAGCTAG | 3.02 | –
78 | TCCAGTGCAATTGTAGGGGTG | – | 1.71
79 | TCCATGCCTCTGGAATGGGAA | – | 1.86
80 | TCCATTATGATTCTTTGTTAC | – | 1.14
81 | TCCATTTATGGAGGATTTTTT | 1.05 | –
82 | TCCCATGTAAAACCTGCTACA | 1.25 | –
83 | TCCCCAGATCTACTGGGTGGA | – | 2.32
84 | TCCCCCACCCCCGAAAATGTT | 3.49 | –
85 | TCCCTGGGCCCCTCCAGGCAC | – | 1.89
86 | TCCGCCACAACATCGAGGACG | 0.797 | 0.728
87 | TCCGCCATGCCCGAAGGCTAC | 1.74 | 2.36
88 | TCCGCCCTGAGCAAAGACCCC | 0.971 | 1.88
89 | TCCGGCGAGGGCGAGGGCGAT | 1.11 | 0.702
90 | TCCGGGGTCAATCTTGCAACA | – | 2.7
91 | TCCTAACACAGCATGTGTATT | – | 1.45
92 | TCCTACCTCTGGTTCTTACGT | 2.29 | –
93 | TCCTACGTTTAAATATCTTTG | 0.95 | –
94 | TCCTATAATATAATAAATATT | – | 0.884
95 | TCCTCAACTCACCTAATGTTT | – | 1.03
96 | TCCTCAAGGACATTACTAGTG | 1.35 | –

Row | Sequence | fold depletion of shRNA [1] | fold depletion of shRNA [2]
97 | TCCTCCAGGTGAAAGGAAAGC | 1.09 | –
98 | TCCTGAAACAGTGGCAATAAA | 0.87 | –
99 | TCCTGACAATCAACTCTAATA | – | 2.16
100 | TCCTGAGCCATCGGTGAAACT | – | 2.6
101 | TCCTGCTGGAGTTCGTGACCG | 0.77 | 0.818
102 | TCCTGCTTTCTGGAGTGAAGT | – | 1.75
103 | TCCTGGGGCACAAGCTGGAGT | 1.16 | 2
104 | TCCTGGTCGAGCTGGACGGCG | 1.04 | 1.13
105 | TCCTTACTACTATCCTACGTT | 0.789 | –
106 | TCCTTGTGATGTTTTTCATGG | – | 1.19
107 | TCGAAAGAATGGTGTCAATGA | 1.52 | –
108 | TCGACTTCAAGGAGGACGGCA | 1.04 | 1.97
109 | TCGAGCTGAAGGGCATCGACT | 0.819 | 3.06
110 | TCGAGCTGGACGGCGACGTAA | 1.72 | 1.38
111 | TCGAGGACGGCGGCGTGCAGC | 0.26 | 0.224
112 | TCGAGGGCGACACCCTGGTGA | 1.31 | 1.06
113 | TCGCCCGCTACCCCGACCACA | 0.809 | 0.7
114 | TCGCCGACCACTACCAGCAGA | 1.32 | 0.775
115 | TCGGCATGGACGAGCTGTACA | 1.91 | 1.5
116 | TCGGCGACGGCCCCGTGCTGC | 0.531 | 0.531
117 | TCGGTGAAACTAACAGATAAG | – | 0.655
118 | TCGTAATTGGCATCAACTTCA | 1.83 | –
119 | TCGTGACCACCCTGGGCTACG | 0.686 | 1.25
120 | TCGTGACCGCCGCCGGGATCA | 0.743 | 0.433

Row | Sequence | fold depletion of shRNA [1] | fold depletion of shRNA [2]
121 | TCTAAACTTTGTTTATAACTC | 1.43 | –
122 | TCTAAATGCATATCCTGAGCC | – | 5.19
123 | TCTAAATTACCTCTGATAATT | 0.795 | –
124 | TCTAACATATGATTCTGTAGT | 0.923 | –
125 | TCTAAGATTTAAGATTCTCCT | 1.17 | –
126 | TCTAAGTATCCCCAGGATCTG | – | 3.01
127 | TCTAATAGTGCTTAAAAATCA | – | 0.721
128 | TCTACACTCATCTTAGTGCCT | – | 1.77
129 | TCTACATGAGGAACTCTAAGT | – | 0.954
130 | TCTACCAGCCAGATGCACACA | – | 0.976
131 | TCTACCTCAAAGACCTTTGCA | 14.5 | –
132 | TCTACTGTATGTGAACACTGT | 1.99 | –
133 | TCTAGAGATTTTACCATATTT | 0.784 | –
134 | TCTAGTTGGGAAAACAAACTT | 1.65 | –
135 | TCTATATCACCGCCGACAAGC | 0.966 | 0.59
136 | TCTATGAATCAATAGAAGAAG | 0.882 | –
137 | TCTCAAAAAAGCCAATCTTTG | 1.74 | –
138 | TCTCAAGGTGGGCCTTGCTAC | – | 2.61
139 | TCTCAGACGTTTTTCGGCTTA | – | 2.12
140 | TCTCAGAGAAAGTAGCTTTGT | 1.42 | –
141 | TCTCAGGCATCAAAAGCATTT | 5.83 | –
142 | TCTCATGAATCTCCAACTTTA | 0.71 | –
143 | TCTCCAACTTTAAATCCTGAA | 0.685 | –
